# PubChem BioAssay AID1508624 (National Center for Advancing Translational Sciences (NCATS), 2021)
# In all, about 48,000 compounds went through this assay and about 120 (0.25%) were called active. Roughly 4% stayed inconclusive and do not appear here. Calls come from the whole dose curve; as a rule, active = well fitted activation curve with a large enough effect; inconclusive = small, poorly fitted or top-dose-only effect, or another doubt; inactive = no such curve, though single readings can be large or run the other way. Some of the results follow.
# Experiment: Primary qHTS for Identification of Small Molecule Activators of Huntingtin-Antisense Promoter Activity; note: nearly all actives have a fitted effect of over 55% in size
# Conditions: HEK293 HTT-AS promoter firefly luciferase reporter, 24 h; series mostly up to 57.5 µM; activity change, positive = activation: at the top concentration
# Procedure, shortened: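 Firefly luciferase signal from promoter-reporter HEK293 cells was scaled between vehicle (0%) and zero RLU (-100%). Compounds were tested at final concentrations of up to 57.5 uM over 24 h at 37 degrees C. PTC124 at 50 uM final served as control inhibitor.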
row,Compound,"activity change, positive = activation"
1,CC(=O)Nc1nnc(SCc2cc(=O)c3cccc(C)c3[nH]2)s1,inactive: -22.6%
2,CC1=C(C(=O)Nc2ccc(C)cc2C)C(c2cccn2C)n2ncnc2N1 (stereo unspecified),inactive: -3.52%
3,CC(C)C(=O)Nc1cccc(NC2=NS(=O)(=O)c3ccccc32)c1,inactive: -3.36%
4,Cc1ccc(C)c(N2CCN(c3nc4ccccc4c4nc(-c5cccnc5)nn34)CC2)c1,inactive: -11.4%
5,CCOC(=O)c1cccc(NC(c2nnc(-c3ccccc3)o2)c2ccccc2F)c1 (stereo unspecified),inactive: -24.5%
6,NC(N)=NCCN1CCCCCCC1,"inactive: -0.499% [at 0.74 µM, percent change from vehicle, -100% = no light]"
7,Cc1ccc2c(c1)c(=O)c(C(=O)c1ccncc1)cn2CC(=O)Nc1ccccc1Cl,inactive: -7.27%
8,CCc1ccc(C2=CC(c3cccc(Br)c3)n3nnnc3N2)cc1 (stereo unspecified),inactive: -26.2%
9,CCc1ccc(NC(=O)Cn2c(=O)oc3cc(S(=O)(=O)NCc4ccccc4)ccc32)cc1,inactive: -38.1%
10,Cc1ccc(CNC(=O)C2CCCN(c3nnc(-n4c(C)ccc4C)s3)C2)cc1 (stereo unspecified),inactive: -6.5%
11,COc1ccc(NC(=O)CSc2nc(O)c(C/C=C/c3ccccc3)c(=O)[nH]2)cc1,inactive: -17%
12,CCOc1ccc(NC(=O)Cn2c(=O)n(CC3CCCO3)c(=O)c3ccccc32)cc1 (stereo unspecified),inactive: -10%
13,CCc1ccc(NC(=O)CSc2nc(C)cc(COC)c2C#N)cc1,inactive: -6.71%
14,CCc1ccc(-n2nc(C)c3c(C)cc(=O)n(CC(=O)NCc4ccc(C)cc4)c32)cc1,inactive: 9.07%
15,CC(C)CCNc1nc2c(S(=O)(=O)c3ccc(Br)cc3)nnn2c2ccsc12,inactive: -16.2%
16,CCc1cc2c(cc3c(=O)n(CC(=O)N4CCN(c5cc(Cl)ccc5C)CC4)nc(CC)n32)s1,inactive: -1.37%
17,O=C(NCc1cccnc1)C(=O)NCC(c1cccnc1)N1CCN(c2ccccc2)CC1 (stereo unspecified),inactive: -15.7%
18,CCCCCCc1cc2cc(-c3nnc(-c4ccc(C)cc4)o3)c(=O)oc2cc1O,inactive: -19.8%
19,O=C(NCc1ccccc1)C1CCN(C(=O)c2cnn(-c3ccccc3)c2-n2cccc2)CC1,inactive: -28.8%
20,C=Cc1ccc(Cn2c(=O)n(-c3ccc(C)cc3)c(=O)c3c2c2cc(OC)ccc2n3C)cc1,inactive: -6.52%
21,COc1ccc2cc(C(=O)NCc3ccc4c(c3)CCN4C(=O)c3ccc(C)cc3)[nH]c2c1,inactive: -28.9%
22,CCOc1ccc2nc(N3CCCC(C(=O)NCc4ccccc4Cl)C3)sc2c1 (stereo unspecified),inactive: 30.5%
23,O=C(NCc1ccccc1Cl)c1ccc(CSCc2cccc(F)c2)o1,inactive: -16%

row,Compound,"activity change, positive = activation"
1,Nc1nc(N)nc(-c2cc(Cl)ccc2Cl)n1,inactive
2,CCN1CCCC1CNC(=O)c1cc(S(=O)(=O)CC)c(N)cc1OC (stereo unspecified),inactive
3,Cc1ccc(-n2nnnc2CNC(=O)c2ccccc2F)cc1C,inactive: 0.635%
4,O=C(O)CCn1cnc2onc(-c3ccccc3Cl)c2c1=O,inactive: -9.44%
5,Cc1cccn2c(=O)cc(COc3ccc(NC(=O)c4cccc(F)c4)cc3)nc12,inactive: -9.09%
6,CCC1CCCCN1C(=O)Cn1c(=O)n(CCCCCC(=O)NCc2ccc(F)cc2)c(=O)c2sccc21 (stereo unspecified),inactive: 4.65%
7,O=C(Nc1c(C(=O)Nc2cccc(C(F)(F)F)c2)oc2ccccc12)c1cc(=O)c2ccccc2o1,inactive: 9.5%
8,O=C(NCc1ccc(Cl)cc1)c1ccc2c(c1)NC(=O)C(CS(=O)(=O)Cc1ccccc1Cl)N2 (stereo unspecified),inactive: -45.2%
9,CCc1cccc(NC(=O)Cn2cc(C(=O)c3ccncc3)c(=O)c3cc(C)c(C)cc32)c1,inactive: -28.2%
10,CCn1c(=O)c2cc(C(=O)NCCCN(C)Cc3ccccc3)sc2c2ccccc21,inactive: -3.23%
11,O=c1[nH]c(-c2ccc(C(F)(F)F)cc2)nc2c1CSCC2,inactive: -4.61%
12,COc1ccccc1CNC(=O)CCC1N=C2c3ccccc3N=C(SCc3ccccc3Cl)N2C1=O (stereo unspecified),inactive: -30.7%
13,CCSc1nc(-c2ccc(Cl)cc2)nc2c1Cc1c(CO)cnc(C)c1O2,inactive: -15.9%
14,CCCS(=O)(=O)Nc1ccc(F)c(C(=O)c2c[nH]c3ncc(Cl)cc23)c1F,inactive: -41.1%
15,COc1ccc(-c2cc(C(F)(F)F)n3nc(C(=O)Nc4cccc(C(F)(F)F)c4)c(Br)c3n2)cc1,inactive: -3.86%
16,CCOC(=O)c1ccc(NC(=O)CCn2cnnn2)cc1,inactive: -0.867%
17,COC(=O)c1cnc(N2CCN(c3ccccc3OC)CC2)c2ccccc12,inactive: 6.54%
18,CCOC(=O)c1sc2ccccc2c1S(=O)(=O)NCc1ccc(F)cc1,inactive: -18.8%
19,CC1=C(c2ccc(Cl)cc2)S(=O)(=O)N=C1N1CCN(c2cccc(C(F)(F)F)c2)CC1,inactive: -36.8%
20,COc1ccc(N2CC(NC(=O)COc3ccccc3C)CC2=O)cc1OC (stereo unspecified),inactive: -15.3%
21,CCN1c2cc(C)ccc2-n2cccc2C12CCN(C(=O)Nc1cc(OC)c(OC)c(OC)c1)CC2,inactive: -28.5%
22,CCOC(=O)c1c(NC(=O)c2ccc(S(=O)(=O)N3CCCC(C)C3)cc2)sc2c1CCN(C(C)C)C2 (stereo unspecified),inactive: -21%
23,Cc1ccc(S(=O)(=O)c2nc(-c3ccco3)oc2SCc2ccccc2Cl)cc1,inactive: -7.47%
